# Experimental data: patent publication EP4660190A1, “PHARMACEUTICALLY ACCEPTABLE SALT OF COMPOUND AND PREPARATION METHOD THEREFOR” (Jiangsu Chia Tai Fenghai Pharmaceutical Co., Ltd., priority 2023, dated 2024)
# Assay: SOD1-G93A ALS mice, body weight
# Conditions: all doses, compared to the solvent group
substance,measurement,value
(Z)-3-(1-hydroxybutenyl)benzofuran-2-one tromethamine salt [Example 10],effect on the body weight of the mice,no significant effect
